# Experimental data published in the supplement of paper PMC4894684.
# Structures can show the parent of a compound that is named as a salt. ± gives the standard deviation of the averaged measurements. Among all 1,000 compounds or so, about 15 (2%) showed an effect of 50% or more. This is one part of the list.
# Tested on: HFF
# Experiment: uninfected host cell viability relative to vehicle control; higher = less host cell toxicity
# Conditions: 5 µM; 72 h; oxygen 21 %
# 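Further: confluent HFF monolayers, run in parallel with the Toxoplasma growth screen as a host toxicity counterscreen.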
row,SMILES,uninfected host cell viability [%]
1,COc1c(C)c2c(c(O)c1C/C=C(\C)CCC(=O)O)C(=O)OC2 [Mycophenolic acid],88.36 ± 0.65
2,CC(C)NC[C@H](O)COc1cccc2ccccc12 [(S)-(-)-Propranolol hydrochloride],90.2 ± 3
3,O=c1c(-c2ccc(O)cc2)coc2cc(O)ccc12 [Daidzein],94.9 ± 3.5
4,OCC1OC(n2cnc3c(NC4CCCC4)nc(Cl)nc32)C(O)C1O (stereo not given) [2-Chloro-N6-cyclopentyladenosine],91.4 ± 8.7
5,N[C@@H](Cc1cc(CP(=O)(O)O)cc(-c2ccccc2Cl)c1)C(=O)O,88.9 ± 6
6,CC(=O)N(OCc1ccccc1)[C@H]1c2cc(C#N)ccc2OC(C)(C)[C@H]1O,98.6 ± 2.8
7,O=C(O)C=C1CCCc2ccccc2C1O (stereo not given),83.32 ± 0.084
8,NCC(O)(CS(=O)(=O)O)c1ccc(Cl)cc1 (stereo not given) [2-Hydroxysaclofen],88.5 ± 1.9
9,CC[C@H](NC(=O)c1c(C)c(-c2ccccc2)nc2ccccc12)c1ccccc1,89.34 ± 0.64
10,CCOC(=O)c1ncn2c1CN(C)C(=O)c1cc(F)ccc1-2 [Flumazenil],87.4 ± 1.9
11,CC(C1=C(CCN(C)C)Cc2ccccc21)c1ccccn1 (stereo in doubt) [(S)-(+)-Dimethindene maleate],94.3 ± 0.97
12,O=C(O)Cc1ccc(OCCNC[C@H](O)c2ccccc2)cc1 [ZD 2079 hydrochloride],87.2 ± 4.2
13,COC(=O)c1c(C)[nH]c(C)c1C(=O)c1ccccc1Cc1ccccc1,85 ± 2.6
14,CC(C)n1nnc2cc(C(=O)O)ccc21,100 ± 2.3
15,CCCC1O[C@@H]2C[C@H]3[C@@H]4CCC5=CC(=O)C=C[C@]5(C)[C@H]4[C@@H](O)C[C@]3(C)[C@]2(C(=O)CO)O1 (stereo not given in full) [Budesonide],96.6 ± 3.2
16,Cc1ccccc1C(=O)c1ccc(Nc2ccc(Br)cc2N)cc1Cl,84 ± 2.2
17,c1ccc(C(O[C@@H]2CCCN(CCc3ccc4c(c3)OCO4)C2)c2ccccc2)cc1 [Zamifenacin fumarate],90.5 ± 1
18,CC(C)NCC(O)c1ccc(O)c(O)c1 (stereo not given) [Isoproterenol hydrochloride],77.4 ± 5.1
19,Oc1ccc(-c2c(-c3ccccc3)nn3c(C(F)(F)F)cc(C(F)(F)F)nc23)cc1,99.2 ± 3.1
20,Nc1nc2c(ncn2COCCO)c(=O)[nH]1 [Acyclovir],94.7 ± 3.5
21,O=S(=O)(c1ccccc1)N(CC(F)(F)F)c1ccc(C(O)(C(F)(F)F)C(F)(F)F)cc1,90.3 ± 6.8
22,C[C@H](NC[C@H](O)CP(=O)(O)CC1CCCCC1)c1ccc(Cl)c(Cl)c1,84.83 ± 0.31

row,SMILES,uninfected host cell viability [%]
1,CCOc1cc(CC(=O)N[C@@H](CC(C)C)c2ccccc2N2CCCCC2)ccc1C(=O)O [Repaglinide],93.7 ± 2.1
2,O=C(CCCCCN1C(=O)c2cccc3cccc(c23)C1=O)NO [Scriptaid],57.5 ± 1.4
3,C=C[C@@]1(C)CC(=O)[C@]2(O)[C@@]3(C)[C@@H](O)CCC(C)(C)[C@@H]3[C@H](O)[C@H](OC(C)=O)[C@@]2(C)O1 [Forskolin],95.9 ± 2.4
4,Nc1c2c(nc3ccccc13)CCCC2 [Tacrine hydrochloride],93.4 ± 1.1
5,Cc1ccc(NC(=O)c2cccc(N(C)C)c2)cc1NC(=O)c1ccc(O)cc1,70.9 ± 0.75
6,CCc1ccc2c(-c3cccc(Cl)c3)nc(=O)n(CC)c2n1,87.2 ± 1.4
7,COC(=O)C1=C(C)NC(C)=C([N+](=O)[O-])C1c1ccccc1C(F)(F)F (racemic),70.47 ± 0.64
8,CC(C)[C@H]1c2ccc(F)cc2CC[C@@]1(CCN(C)CCCc1nc2ccccc2[nH]1)OC(=O)C1CC1 [NNC 55-0396 dihydrochloride],15.68 ± 0.031
9,"O=C1CN(/N=C/c2ccc(-c3ccc([N+](=O)[O-])cc3)o2)C(=O)N1 [Dantrolene, sodium salt]",97.8 ± 1.1
10,Nc1[nH]nc2nnc(-c3c(-c4ccccc4)nn4ccccc34)cc12,94.685 ± 0.091
11,CS(=O)(=O)c1ccc(-c2cc(Br)sc2-c2ccc(F)cc2)cc1,104 ± 1.4
12,Cc1nc2sccn2c(=O)c1CCN1CCC(=C(c2ccccc2)c2ccc(F)cc2)CC1,93.9 ± 5.6
13,COc1ccc(-c2nc(-c3ccc(-c4cccc(Cl)c4)o3)[nH]c2-c2ccc(OC)cc2)cc1 [Neurodazine],80.3 ± 5.1
14,CC(C)NCC(O)COc1ccc(COCCOC(C)C)cc1 (racemic) [(±)-Bisoprolol hemifumarate],90.5 ± 3.5
15,NC(=O)N1C(=O)/C(=C(\O)c2cccs2)c2cc(Cl)ccc21 [Tenidap],89.1 ± 2
16,CC1C(=O)OC2C(O)C34C5CC(C(C)(C)C)C36C(OC(=O)C6O)OC4(C(=O)O5)C12O (stereo not given) [Ginkgolide B],96.9 ± 2.6
17,CCCCCCCCc1ccc(-c2ccc(C(=O)O)cc2)cc1,85.5 ± 5
18,Cc1cc(NC(=O)Nc2ccc(N(C)C)cc2)c2cc(F)cc(F)c2n1,85.86 ± 0.3
19,CC1(C)Oc2ccc(C#N)cc2[C@@H](N2CCCC2=O)[C@@H]1O [Levcromakalim],87.59 ± 0.25
20,O=c1[nH]ccc2c(S(=O)(=O)N3CCCNCC3)cccc12 [HA 1100 hydrochloride],90 ± 3.1
21,Cc1oncc1C(=O)Nc1ccc(C(F)(F)F)cc1 [Leflunomide],93.41 ± 0.27
22,O=c1[nH]c2cc(C(F)(F)F)c(N3CCOCC3)cc2n(CP(=O)(O)O)c1=O,88.1 ± 5.2

row,SMILES,uninfected host cell viability [%]
1,Cc1ccc(O)c(N=Nc2ccccc2)n1,91.6 ± 1
2,CSc1ccc2c(c1)C(N1CCN(C)CC1)Cc1ccccc1S2 (stereo not given) [Methiothepin maleate],81.6 ± 1.7
3,"O=C(O)COc1ccc(OCCNC[C@H](O)COc2ccccc2)cc1 [ICI 215,001 hydrochloride]",88.1 ± 3.3
4,Cc1cc(C(C)(C)C)c(O)c(C)c1CC1=NCCN1 [Oxymetazoline hydrochloride],83.4 ± 1.6
5,CC(C)(C(=O)O)c1ccc(C(O)CCCN2CCC(C(O)(c3ccccc3)c3ccccc3)CC2)cc1 (stereo not given) [Fexofenadine hydrochloride],89.1 ± 1.1
6,CCN(CC)CCCCNc1ncc2cc(-c3c(Cl)cccc3Cl)c(NC(=O)NC(C)(C)C)nc2n1,77.5 ± 3.9
7,COc1ccc(-n2[nH]c3c4c(ncc3c2=O)CCCCC4)cc1,92.03 ± 0.15
8,Cc1sc(N)c(C(=O)c2cccc(C(F)(F)F)c2)c1C,75.4 ± 5
9,COc1ccc(OC)c2c(=S)c3ccccc3[nH]c12,76.9 ± 3.1
10,C=C1C(=O)O[C@@H]2/C=C(\C)CC/C=C(\C)CC[C@@H]12 [Costunolide],114 ± 2.7
11,O=C(Nc1ccccc1)c1cc([N+](=O)[O-])ccc1Cl,85.3 ± 1.4
12,CC(=O)N(O)[C@@H]1c2cc(C#N)ccc2OC(C)(C)[C@H]1O,92.4 ± 3.3
13,Cn1cnc2c(NCc3ccccc3)nc(NCCO)nc21 [Olomoucine],81.24 ± 0.74
14,CC(C)N1Cc2cc(S(C)(=O)=O)ccc2N(CCN2CC=C(c3c[nH]c4cc(F)ccc34)CC2)S1(=O)=O,86.3 ± 1.4
15,COc1cccc2c1C(=O)c1c(O)c3c(c(O)c1C2=O)C[C@@](O)(C(=O)CO)C[C@@H]3O[C@H]1C[C@H](N)[C@H](O)[C@H](C)O1 [Doxorubicin hydrochloride],63.2 ± 0.75
16,O=C(C=Cc1ccccc1)NC(NC(=S)Nc1ccc(Cl)cc1)C(Cl)(Cl)Cl (stereo not given),81.9 ± 0.86
17,NCCNC(=O)c1ccc(Cl)cn1 [Lazabemide hydrochloride],94.7 ± 1.2
18,N=C(N)NC(=N)Nc1ccccc1 [1-Phenylbiguanide hydrochloride],86 ± 6.5
19,Fc1ccc(C(c2ccc(F)cc2)N2CCN(C/C=C/c3ccccc3)CC2)cc1 [Flunarizine dihydrochloride],93.1 ± 8
20,O=c1cc(-c2cccc3c2Sc2ccccc2S3)oc(N2CCOCC2)c1,88.9 ± 1.5
21,N=C(N)SCCc1ccc(OCc2ccc([N+](=O)[O-])cc2)cc1 [KB-R7943 mesylate],98.457 ± 0.021
22,N#Cc1c(O)c2c(-c3ccc(-c4ccccc4O)cc3)csc2[nH]c1=O,83.9 ± 2.9

row,SMILES,uninfected host cell viability [%]
1,O=[N+]([O-])c1ccccc1S(=O)(=O)NCC1CCC(CNCC2CCc3ccccc3C2)CC1 (stereo not given) [NTNCB hydrochloride],85.7 ± 3.1
2,O=C(/C=C/c1ccccc1)NC(NC(=S)Nc1cccc2cccnc12)C(Cl)(Cl)Cl (stereo not given) [Salubrinal],84.55 ± 0.26
3,Fc1ccc(Cl)cc1-c1nc(Nc2ccncc2)c2nccnc2n1,82.9 ± 1.1
4,O=C(NCCCN1CCC2(CC1)OCc1ccccc12)[C@H]1CCCN1Cc1ccccc1,83.3 ± 2.7
5,O=C(c1ccc(Nc2nccc(-c3cc4ccccc4s3)n2)cc1)N1CCC(N2CCCC2)CC1,14.9 ± 0.68
6,N=C(N)NC(=O)Cc1c(Cl)cccc1Cl [Guanfacine hydrochloride],84.1 ± 5.9
7,Cc1ccc(CC2(O)CCN(CCOc3ccc(O)cc3)CC2)cc1,93.5 ± 2.2
8,COC(=O)C1=C(C)NC(C)=C(C(=O)NCCCN2CCC(c3ccccc3)(c3ccccc3)CC2)C1c1ccc([N+](=O)[O-])cc1 (stereo not given),81.9 ± 1.8
9,OC(CN1CCC(Cc2ccc(F)cc2)CC1)c1ccc(Cl)cc1 (stereo not given) [Eliprodil],88.9 ± 1.1
10,Cc1c(NC(=O)N2CCOCC2)ccc2c1c1ccccc1n2C(C)C,86.42 ± 0.39
11,O=C(O)c1ccc(-c2ccc3cc(O)c(C45CC6CC(CC(C6)C4)C5)cc3c2)cc1,78 ± 3.5
12,"Cc1c(C2CCN(CCc3ccccc3)CC2)noc1-c1ccc(Cl)cc1 [L-741,742 hydrochloride]",99.5 ± 3.1
13,c1ccc(-c2[nH]ncc2-c2ccnc3ccccc23)nc1,85.1 ± 2.5
14,NC(=O)CNCCC(c1ccccc1)c1ccccc1 [N20C hydrochloride],96.52 ± 0.7
15,CN1CCc2cc(Cl)c(O)cc2[C@@H](c2ccccc2)C1,86 ± 3.2
16,O=C(O)c1ccc(-c2c[nH]c3ncc(-c4ccccc4)cc23)cc1C1CCCC1,109 ± 2.2
17,CCCCNC(=O)[C@@H]1Cc2ccccc2N1C(=O)[C@@H](N)CC [Butabindide oxalate],88.3 ± 5.3
18,CC1=C(/C=C/C(C)=C/C=C/C(C)=C/C(=O)O)C(C)(C)CCC1 [Retinoic acid],98.8 ± 1.5
19,NC(N)=Nc1ccc(Cl)cc1 [4-Chlorophenylguanidine hydrochloride],87.3 ± 2.5
